Measurements published in PubChem BioAssay AID652104 (National Center for Advancing Translational Sciences (NCATS), 2013).
Out of some 410,000 compounds screened, about 7,200 (1.8%) were called active. Inconclusive results, whose numbers are uncertain, are shown with a selection of clear calls. The call rests on the fitted dose curve; in most records, active means well fitted activation curve with a large enough effect; inconclusive means small, poorly fitted or top-dose-only effect, or another doubt; inactive means no such curve, though single readings can be large or run the other way. No potency is given beside an inconclusive call; the fits are too rough.

Test: qHTS of TDP-43 Inhibitors; further: nearly all actives have a fitted effect of over 50% in size; on growth rescue (activation): % of control where 0% means no effect
Conditions: TDP-43 expressing yeast growth rescue, BacTiter-Glo, 24 h; growth rescue (activation): at 46.1 µM (top of the series) unless noted
Procedure, shortened: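 Cell-based yeast growth screen: TDP-43 expression induced in galactose, inoculum OD600=0.02 after raffinose pregrowth to mid-log. Read-out BacTiter-Glo luminescence at 24 hr, 30 deg C; inhibition of toxicity seen as signal increase.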
Potency means the concentration at half of the fitted maximal effect; tags describe the fitted curve by direction and shape.

| SMILES | Potency | growth rescue (activation) |
| --- | --- | --- |
| Cc1ccc(NC(=O)c2oc3ccccc3c2NC(=O)C2CCCO2)cc1C (stereo unspecified) | inconclusive [activator, single point] | – |
| Nc1ccc(C#Cc2ccc3sc4ccccc4c(=O)c3c2)cc1 | – | inactive: 15% |
| CN(C)S(=O)(=O)c1ccc2c(c1)N(CC(=O)NCc1ccccc1)C(=O)C1CCCCN21 (stereo unspecified) | – | inactive: 0% [at 9.22 µM] |
| CCOc1ccccc1OCC(=O)OCC(=O)c1c(C)[nH]c2ccccc12 | – | inconclusive: 32.7% [activator] |
| CCN(CC)S(=O)(=O)c1ccc(N2CCN(CCO)CC2)nc1 | – | inactive: 23.9% |
| Cc1onc(-c2ccccc2Cl)c1C(=O)Nc1ccc(Br)cc1 | active: 11.2 µM | – |
| CCCc1c(C(=O)Nc2ccc(F)cc2)cnn1-c1ccccc1 | inconclusive [activator, single point] | – |
| CCCCN=CC1=C(O)CC(c2ccccc2)CC1=O (stereo unspecified) | inconclusive [activator, single point] | – |
| COc1cccc(/C=C2\SC(N3CCC(C)CC3)=NC2=O)c1OC | inconclusive [activator, single point] | – |
| Cc1nn(-c2ccc(Cl)cc2Cl)c(=O)c2ccccc12 | inconclusive [activator, single point] | – |
| O=C(/C=C/c1ccc(Cl)c(Cl)c1)NC1=NCCS1 | inconclusive [activator, partial curve, poor fit] | – |
| Cc1ccc(Nc2n[nH]c(C)c2[N+](=O)[O-])c(C)c1 | inconclusive [activator, partial curve] | – |
| COc1cccc(C2=CC(=O)CC(c3ccco3)C2)c1 (stereo unspecified) | inconclusive [activator, single point] | – |
| Clc1nc(-c2ccccn2)nc2scc(-c3ccccc3)c12 | inconclusive [activator, single point] | – |
| O=C(CSc1ncc(CO)n1Cc1ccccc1)Nc1nc2ccccc2s1 | – | inactive: 4.45% |
| O=C(Nc1ccc(F)cc1)N[C@@H]1CC[C@@H](CCn2cc(-c3ccc(F)cc3)nn2)O[C@@H]1CO | inconclusive [activator, full curve, poor fit] | – |
| COc1cccc(C(=O)NCCSCc2ccccc2Cl)c1 | inconclusive [activator, partial curve] | – |
| CCc1ccc(C2=CC(c3cc(Br)ccc3F)n3ncnc3N2)cc1 (stereo unspecified) | inconclusive [activator, single point] | – |
| CCOc1cc(/C=N/O)cc(Cl)c1OC | inconclusive [activator, full curve, poor fit] | – |
| CCCCn1c(SCC(=O)/C(C#N)=C(\C)N)nc2ccccc2c1=O | inconclusive [activator, partial curve] | – |
| O=[N+]([O-])c1ccc2cn[nH]c2c1 | inconclusive [activator, partial curve] | – |
| Clc1cccc(C2Nc3cccc4cccc(c34)N2)c1Cl | inconclusive [activator, single point] | – |
| c1ccc(-c2ccccc2-c2nc(-c3ccncc3)no2)cc1 | inconclusive [activator, single point] | – |
| COCc1nnc(NC(=O)c2ccccc2Oc2ccccc2)s1 | inconclusive [activator, partial curve] | – |

| SMILES | Potency | growth rescue (activation) |
| --- | --- | --- |
| Cc1nc2c3cc(F)ccc3n(Cc3ccccc3)c2s1 | inconclusive [activator, partial curve] | – |
| C[C@H](C[C@H](O)[C@H]1OC1(C)C)C1=C2C[C@H](O)C3[C@@]4(C)CCC(=O)C(C)(C)C4CC[C@]3(C)[C@@]2(C)CC1 (stereo partly specified) | inconclusive [activator, single point] | – |
| O=C(c1cccs1)N1CCc2c([nH]c3ccccc23)C1c1ccccn1 (stereo unspecified) | inconclusive [activator, partial curve] | – |
| c1ccc(C2OC3c4cccc5cccc(c45)C3N2c2ccccc2)cc1 (stereo unspecified) | inconclusive [activator, single point] | – |
| Cc1cc(C)n(-c2ccnc3cc(Cl)ccc23)n1 | inconclusive [activator, partial curve] | – |
| CCOC(=O)C1=NNC(C(=O)c2ccc(C)cc2)C1c1ccc(OC)cc1 (stereo unspecified) | active: 20 µM | – |
| O=C(c1cn(-c2ccccc2)nc1-c1ccc(F)cc1)N1CCCCC1 | – | inactive: 18% |
| O=C(CSc1nccn1-c1cccc(F)c1)NC1CCCC1 | – | inactive: 12.2% |
| COC(=O)c1ccccc1NC(=O)N1CCCC1 | – | inactive: -6.73% |
| Cc1ccc(C)c(N2CCN(C(=O)c3cnc4c(-c5ccccc5)c(C)nn4c3C)CC2)c1 | – | inactive: 14.2% |
| CSc1ccc(CN2CCC(C)(Oc3cnc(Cl)c4ccccc34)C2)cc1 (stereo unspecified) | inconclusive [activator, partial curve] | – |
| COc1cc(C)c(Cl)cc1S(=O)(=O)NCCc1c(C)[nH]c2ccccc12 | inconclusive [activator, partial curve] | – |
| CCc1nc2ccccc2c(C(=O)OCC(=O)N(C)Cc2ccccc2)c1C | active: 35.5 µM | – |
| C[C@@]12CCC3[C@@](CCC4[C@@]3(C)CCC[C@@]4(C)C(=O)O)(CC1=O)C2 (stereo partly specified) | active: 20 µM | – |
| CC(C)c1ccccc1-n1c(SCC(=O)N2CCc3ccccc3C2)nc2ccccc2c1=O | – | inconclusive: -66.1% [activator] |
| CCOc1ccc(N2CC(C(=O)N3CCN(C(=O)c4ccco4)CC3)CC2=O)cc1 (stereo unspecified) | inconclusive [activator, partial curve] | – |
| COc1cc(NC(=O)C(CC(C)C)NS(=O)(=O)c2ccc3c(c2)CCCC(=O)N3)cc(OC)c1 (stereo unspecified) | – | inactive: 7.08% |
| CCC1=Nc2cc(C(=O)NCc3ccco3)ccc2Sc2ccc(C)cc21 | inconclusive [activator, partial curve] | – |
| NC(=O)c1ccccc1NCC(=O)c1ccc(Cl)cc1 | – | inactive: -14.8% |
| OCCNC1=NCCN1 | – | inactive: 18.6% |
| Cc1ccc(CNC(=O)CCCn2c(=O)c3ccccc3n(CC(=O)C(C)(C)C)c2=O)cc1 | inconclusive [activator, single point] | – |
| COc1ccccc1/C=C1\CCC(C2CCCC2)C1=O (stereo unspecified) | inconclusive [activator, partial curve] | – |
| Cc1cccc(NC(=O)NCCn2c(=O)oc3ccc(C)cc32)c1 | – | inactive: 13.6% |
| CCN(CC)C(=O)CSc1ncnc2c1cnn2Cc1ccccc1 | inconclusive [activator, single point] | – |

| SMILES | Potency | growth rescue (activation) |
| --- | --- | --- |
| COc1cccc(/C=C/c2ccc3cccc(O)c3n2)c1 | inconclusive [activator, single point] | – |
| O=c1cc(-c2ccccc2F)oc2ccccc12 | inconclusive [activator, partial curve, poor fit] | – |
| Cc1ccccc1N1CCN(S(=O)(=O)Cc2ccccc2)CC1 | inconclusive [activator, single point] | – |
| CCN(CC)C(=O)c1ccc(Oc2ccc([N+](=O)[O-])cc2Cl)cc1 | inconclusive [activator, single point] | – |
| Clc1ccc(Nc2nc(-c3cccnc3)cs2)cc1 | – | inactive: 19.1% |
| Brc1ccccc1-n1ncc2c1ncn1nc(Cc3ccccc3)nc21 | inconclusive [activator, full curve] | – |
| Cc1ccc2c(c1)N(C(=O)CCC(=O)Nc1ccccc1Cl)CC(C)O2 (stereo unspecified) | inconclusive [activator, single point] | – |
| O=C(c1cc2c(s1)CCCC2)n1cccn1 | inconclusive [activator, single point] | – |
| COc1ccc(-n2nc3cc(C)c(NC(=O)c4cccnc4)cc3n2)cc1 | – | inactive: -0.515% |
| CC(OC(=O)Cc1c(F)cccc1Cl)C(=O)NCCC1=CCCCC1 (stereo unspecified) | inconclusive [activator, single point] | – |
| COc1cc2[nH]c(C(=O)NCCc3ccccc3)cc2c(OC)c1OC | – | inconclusive: 40.2% [activator] |
| Cc1cccc(C)c1NC(=O)C1c2ccccc2OCC(=O)N1Cc1ccco1 (stereo unspecified) | inconclusive [activator, full curve] | – |
| CC(C)c1ccc(N(C)C(=O)Cc2c(C(=O)O)n(C)c3ccccc23)cc1 | active: 28.2 µM | – |
| Cc1ccc(S(=O)(=O)N2CCN(C(=O)CN3CCc4ccccc4C3)CC2)cc1 | – | inactive: -15.3% |
| O=C(O)/C=C\c1cn(-c2ccccc2)nc1-c1cc2ccccc2o1 | inconclusive [activator, single point] | – |
| S=C(NCc1ccc2[nH]c3c(c2c1)CCCC3)Nc1ccccc1 | active: 17.8 µM | – |
| O=C(Nc1ccccc1F)c1ccc2ncsc2c1 | inconclusive [activator, single point] | – |
| CCOc1ccc(NC(=O)CCNC(=O)C2CCN(S(=O)(=O)c3ccccc3)CC2)cc1 | – | inactive: 1.63% |
| COc1ccccc1C(=O)Nc1ccc(OCC(=O)N2C(C)CCCC2C)cc1 (stereo unspecified) | inconclusive [activator, full curve, poor fit] | – |
| Cc1cccc(-n2ncc3c(N(C)C4CCCCC4)ncnc32)c1 | inconclusive [activator, full curve, poor fit] | – |
| Cc1nc(SC(C)C(=O)c2c(N)n(C)c(=O)n(C)c2=O)c2c(C)c(C)sc2n1 (stereo unspecified) | inconclusive [activator, single point] | – |
| Cc1ccc([N+](=O)[O-])cc1NC(=O)CCc1ccccc1 | inconclusive [activator, partial curve] | – |
| Cc1ccc(-c2nnc(Nc3ccc(Br)cc3)c3ccccc23)cc1S(=O)(=O)N1CCOCC1 | – | inactive: 19.5% |
